Data: PMC4336329 (PLoS ONE, 2015)
The whole screen tested about 310,000 compounds, of which about 2,200 (0.71%) showed an effect of 50% or more. The effect is printed as a negative number. This is one part of the list.

biological target: human ether-à-go-go-related gene (hERG) potassium channel (human, UniProt Q12809); experiment: primary screen, population patch clamp on CHO cells stably expressing hERG
Sequence (Q12809 whole entry, looked up): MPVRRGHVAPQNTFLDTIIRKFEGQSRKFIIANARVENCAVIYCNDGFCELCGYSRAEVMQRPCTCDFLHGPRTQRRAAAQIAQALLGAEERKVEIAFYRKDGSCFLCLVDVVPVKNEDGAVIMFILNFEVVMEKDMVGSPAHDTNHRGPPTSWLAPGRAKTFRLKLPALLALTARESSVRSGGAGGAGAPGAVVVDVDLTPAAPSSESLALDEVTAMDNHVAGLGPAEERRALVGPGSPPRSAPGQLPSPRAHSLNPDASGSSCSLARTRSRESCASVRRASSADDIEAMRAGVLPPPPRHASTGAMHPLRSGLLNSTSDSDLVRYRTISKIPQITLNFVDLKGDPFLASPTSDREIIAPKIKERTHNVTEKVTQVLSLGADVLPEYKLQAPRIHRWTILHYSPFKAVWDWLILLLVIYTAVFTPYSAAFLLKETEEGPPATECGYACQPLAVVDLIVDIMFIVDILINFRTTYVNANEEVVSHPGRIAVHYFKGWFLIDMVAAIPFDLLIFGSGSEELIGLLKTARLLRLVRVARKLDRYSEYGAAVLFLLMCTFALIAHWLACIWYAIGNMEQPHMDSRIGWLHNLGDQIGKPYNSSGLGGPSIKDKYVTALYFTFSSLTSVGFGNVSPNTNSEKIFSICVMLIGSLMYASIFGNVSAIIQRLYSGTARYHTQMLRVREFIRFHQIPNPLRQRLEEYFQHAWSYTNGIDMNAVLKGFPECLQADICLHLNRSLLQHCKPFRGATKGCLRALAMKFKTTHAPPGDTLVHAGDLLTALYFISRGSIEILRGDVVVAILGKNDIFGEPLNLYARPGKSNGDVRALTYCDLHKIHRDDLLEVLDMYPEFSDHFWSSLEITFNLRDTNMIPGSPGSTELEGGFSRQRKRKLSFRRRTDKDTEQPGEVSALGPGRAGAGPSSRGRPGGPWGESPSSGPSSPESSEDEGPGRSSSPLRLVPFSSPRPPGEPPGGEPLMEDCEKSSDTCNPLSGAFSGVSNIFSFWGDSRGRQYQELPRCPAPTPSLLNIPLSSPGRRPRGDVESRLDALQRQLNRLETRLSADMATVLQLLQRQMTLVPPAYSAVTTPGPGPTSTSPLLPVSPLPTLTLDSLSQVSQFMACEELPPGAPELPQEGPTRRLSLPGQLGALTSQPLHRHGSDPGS

Compound | hERG current change (%, negative = inhibition) at 1uM [%]
COc1cc(SC)ccc1C(=O)Nc1cccc(C2OCCCO2)c1 | -2.97
CCC(=O)Oc1ccc(C2N(C(=O)CC)CCN2S(=O)(=O)c2ccc(C)cc2)cc1OC (centres unmarked) | 11.1
CCOCCCn1c(NN)nc2ccccc2c1=O | 16.5
CC(=O)c1ccc(N2CCN(S(=O)(=O)c3c(C)[nH]c(C)c3C(=O)N3CCCCC3)CC2)cc1 | 11.8
c1ccc(C(c2nnnn2C2CCCC2)N2CCCCCC2)nc1 (centres unmarked) | -7.56
COc1cc(/C=N/NC(N)=S)cc(Br)c1OCc1ccccc1F | -3.88
CCOC(=O)c1nc2ccccc2c(=O)n1-c1cccc(C)c1 | 8.13
COc1ccc(Cl)cc1S(=O)(=O)N(C)CC(=O)NCc1ccc2c(c1)OCO2 | 4.79
CN(C)C(=O)c1ccc(=O)n(Cc2ccc(Cl)cc2Cl)c1 | 5.25
COc1ccc(-c2nnnn2C(C)C)cc1S(=O)(=O)Nc1ccccc1 | 9.76
CC(=O)N1CCc2c(sc(NC(=O)Cc3ccccc3)c2C#N)C1 | 13.9
Cc1cc(=O)n2nc(N3CCCC(C(=O)NC4CCC(C)CC4)C3)sc2n1 (centres unmarked) | 14.2
O=C(COC(=O)COc1ccc(Cl)cc1)NCc1cccs1 | 5.43
COc1ccc(Cn2cccc(NC(=O)Nc3cccc(C#N)c3)c2=O)cc1 | 19.8
NC(=O)CC(CC(=O)OCc1ccccc1)c1ccccc1 (centres unmarked) | 14.9
CCCNC(=O)C12CCC(C)(c3nc4cc(C)c(C)cc4nc31)C2(C)C (centres unmarked) | -4.51
Cc1ccc(Cn2nnc3c(=O)[nH]c(C4CCCN(C(=O)c5ccco5)C4)nc32)cc1 (centres unmarked) | 14.3
O=C1CC(c2c[nH]c3ccccc23)C(=O)N1c1ccccc1 (centres unmarked) | -2.79
CCOC(=O)c1cc(CC)sc1NC(=O)c1ccc(N2C(=O)CCC2=O)cc1 | 9.54
CCOc1ccc(S(=O)(=O)N2CCCC(C(=O)NCC3CCCO3)C2)cc1 (centres unmarked) | 2.36
Cc1ccccc1S(=O)(=O)Oc1cccc2c(O)cccc12 | 13
CC(C)CCOc1ccc(Cl)cc1CN1CCOCC1.Cl | 13
COc1ccc(OCC(O)CN2CCCCC2)cc1.Cl (centres unmarked) | 19.2

Compound | hERG current change (%, negative = inhibition) at 1uM [%]
COc1cc(OC)cc(-c2c(-c3cccs3)c3cc(Br)ccc3n2C)c1 | 20.8
CCOc1ccc(NC(=O)NC2CCS(=O)(=O)C2)cc1 (centres unmarked) | 4.38
Cc1ccc(S(=O)(=O)N2CCCCC2c2cccnc2)c(C)c1C (centres unmarked) | 5.11
O=C(NC1CCN(C(=O)Nc2cccc(Cl)c2)CC1)c1ccccc1 | 8.13
COc1ccc(C(=O)Nc2ccccc2N2CCOCC2)cc1[N+](=O)[O-] | 5.7
CCCN(CC1CC1)C(=O)CCc1nnc(CCc2c[nH]c3ccccc23)o1 | 15.8
CCC(=O)N(CCc1ccccc1)Cc1cc2ccc(OC)cc2[nH]c1=O | -1.09
Br.COc1ccc(C(=O)CN2CCCCC2)cc1 | 13.9
CN(c1ccccc1)S(=O)(=O)c1ccc(C(=O)NCc2ccccc2F)cc1 | 2.12
O=C(Nc1ccc(Cl)cc1)c1cccnc1N1CCCCC1 | 3.27
CC(=O)c1cccc(NC(=O)CN2CCc3cc4c(cc3C2)OCCCO4)c1 | -7.11
CC1CCN(C2=NC(=O)/C(=C/c3cn[nH]c3-c3ccccc3)S2)CC1 | 2.59
CCCCCC(=O)Nc1nnn(CCC)n1 | 2.43
CCc1ccc(-c2csc(NC(=O)C3CC(=O)N(c4ccc5c(c4)OCCO5)C3)n2)cc1 (centres unmarked) | 11.8
Cc1nc(C)c(-c2csc(Nc3ccc(S(N)(=O)=O)cc3)n2)s1 | 14.4
CC(C(=O)OCC(=O)c1ccc(Br)cc1)N1C(=O)C2C3C=CC(C3)C2C1=O (centres unmarked) | 2.95
Cc1ccc(C)c2c1sc(=NC(=O)CN1C(=O)CCC1=O)n2C | 13.2
Cc1[nH]c2ccccc2c1/C=N/NC(=O)c1cccc(S(=O)(=O)Nc2ccccc2Cl)c1 | 6.57
COc1ccc(-c2cc(-c3ccccc3)nc(N3CCCC3)n2)cc1OC | 1.32
C=CCNC(=O)C(=O)NCCOc1ccccc1Cl | 10.2
CC(C)(C)c1ccc(C(=O)NC(=S)NNC(=O)c2cccs2)cc1 | 15.3
O=C(CN1CCOCC1)Nc1ccc(Oc2ccccc2)cc1 | 1.27
COc1cc(C2CC(=O)N3CN(Cc4ccco4)CSC3=C2C#N)ccc1OCc1ccccc1 (centres unmarked) | 9.48

Compound | hERG current change (%, negative = inhibition) at 1uM [%]
COc1ccc(/C=C(\NC(=O)c2ccccc2)C(=O)N2CCN(C)CC2)cc1OC | 23.7
COC(=O)c1cc(=O)n(-c2ccc(F)cc2)c(=Nc2ccc(F)cc2)s1 | 11.9
COCCn1c(=O)[nH]c(=O)c2c(C(F)(F)F)cc(-c3cccs3)nc21 | 9.12
CCc1ccc(OCC(=O)NC(C)(C)C)cc1 | 25.8
O=C(Nc1cccc(Cl)c1)Nc1cccc(Cl)c1 | 16.1
COc1cccc(N/C(N)=N/c2nc(C(F)(F)F)cc(=O)[nH]2)c1 | 6.94
O=C(Nc1ccccc1)Nc1nnc(Cc2ccccc2F)s1 | 6.83
CCOP(=O)(OCC)C(NS(=O)(=O)c1ccccc1)C(Cl)(Cl)Cl (centres unmarked) | 15.8
N#Cc1c(N)n(-c2ccc(O)cc2)c2nc3ccccc3nc12 | 10.3
CCC(=O)N=c1sc2cc([N+](=O)[O-])ccc2n1CCOC | 7.03
COC(=O)C1=CO[C@@H](O[C@@H]2OC(CO)[C@@H](O)[C@@H](O)[C@@H]2O)C2C1CC[C@]2(C)O (some centres unmarked) | 3.3
Cc1cc([N+](=O)[O-])ccc1NC(=O)C(C)N1CCN(c2ccccn2)CC1 (centres unmarked) | -40
NC(=O)/C(=C/c1ccco1)NC(=O)c1ccc(Br)o1 | 5.74
COc1ccc(CNC(=S)Nc2cccc(C)c2)cc1 | 0.33
CCOC(=O)C(C)Sc1nc2c([nH]c3ccccc32)c(=O)n1C (centres unmarked) | 1.76
COc1ccc(C(=O)Cn2nnc(-c3ccccc3NC(=O)C3CC3)n2)cc1 | 9.19
COc1ccc(Nc2cc(C(=O)NCCCN3CCN(C)CC3)c3ccccc3n2)cc1 | 8.65
OCCC1CN(Cc2ccccc2O)CCN1CCCc1ccccc1 (centres unmarked) | -20.5
Cc1cccc(CC(=O)N2CCC(n3nccc3NC(=O)C3CC3)CC2)c1 | 18
COC(=O)c1sc2nc(C)nc(SCC(=O)N3CCC(C(=O)O)CC3)c2c1C | 13.7
COc1ccccc1CNC(=O)CN(C)CC(=O)Nc1cccc(F)c1 | 7.83
O=S1(=O)CC(O)C(NCc2ccco2)C1 (centres unmarked) | -5.67
CCOc1ccc(CN2CCCC(CO)(Cc3ccccc3F)C2)cc1 (centres unmarked) | -11.4

Compound | hERG current change (%, negative = inhibition) at 1uM [%]
CCCCN(CC)S(=O)(=O)c1ccc(C(=O)N(CCCN(C)C)c2nc3cc(C)cc(C)c3s2)cc1.Cl | -34.6
COc1ccc(N(C(=O)c2cccc(OC)c2OC)C2C=CS(=O)(=O)C2)c(OC)c1 (centres unmarked) | 5.11
CCOC(=O)c1nnn(-c2nonc2N)c1-c1ccccc1 | 11.1
Cc1ccc(N(C(=O)C2CCCC2)C2C=CS(=O)(=O)C2)cc1C (centres unmarked) | 3.46
Cc1nn(CC#N)c(=O)n1-c1ccccc1F | 8.19
O=C(CC1(O)C(=O)Nc2ccccc21)c1ccccc1 (centres unmarked) | 10.9
CC(C)(C)c1ccc(OCCC(=O)Nc2cccc(S(=O)(=O)N3CCCC3)c2)cc1 | 12
CCOc1ccc(/C(O)=C2/C(=O)C(=O)N(CCOCCO)C2c2ccc(F)cc2)cc1 (centres unmarked) | -2.22
NCc1cccc(-n2cccn2)c1.O=C(O)CC(=O)O | 1.29
O=C(NCc1ccccc1)c1ccccc1OCC(=O)N1CCCCC1 | -2.15
CC1(C)CCC/C(=C\c2ccccc2)C1=O | 4.83
S=C(NCc1ccc(Cl)cc1)Nc1ccccc1Cl | 13.6
O=C(COC(=O)c1cc([N+](=O)[O-])ccc1NCCO)Nc1cccc(S(=O)(=O)N2CCCC2)c1 | 21.8
O=C(Nc1ccncc1)c1c(F)cccc1F | -13.1
CCn1c(CN2CCOCC2)nnc1SCC(=O)Nc1ccc(C(C)=O)cc1 | 11.2
Cc1cccc(-c2noc(CCC(=O)NC3CCCCC3)n2)c1 | 4.84
COc1ccc(C2CC(c3cccs3)=NN2C(=O)COC(=O)c2cc3ccccc3cc2O)cc1OC (centres unmarked) | 5
CC(C(=O)N1CCCc2ccccc21)N1CCN(S(=O)(=O)c2ccccc2F)CC1 (centres unmarked) | 1.16
COc1cc(CC(=O)OCC(=O)Nc2ccccc2C#N)cc(OC)c1OC | 6.64
O=C1c2cc(Cl)ccc2OC2(CCNCC2)C12CC(c1ccc(Cl)cc1)=NO2 (centres unmarked) | 7.36
